# Results published in PubChem BioAssay AID485344 (National Center for Advancing Translational Sciences (NCATS), 2010).
# In all, about 340,000 compounds went through this assay and about 6,900 (2%) were called active. Rule as the data show it: active = inhibition above about 30%; inactive = below that, where a call was filed. The entries are a selection whose mix differs from that of the whole data set. Entries without a call were filed so in the source.
# Target: D(2) dopamine receptor (Homo sapiens) (UniProt P14416)
# UniProt P14416, sequence (P14416 whole entry, looked up): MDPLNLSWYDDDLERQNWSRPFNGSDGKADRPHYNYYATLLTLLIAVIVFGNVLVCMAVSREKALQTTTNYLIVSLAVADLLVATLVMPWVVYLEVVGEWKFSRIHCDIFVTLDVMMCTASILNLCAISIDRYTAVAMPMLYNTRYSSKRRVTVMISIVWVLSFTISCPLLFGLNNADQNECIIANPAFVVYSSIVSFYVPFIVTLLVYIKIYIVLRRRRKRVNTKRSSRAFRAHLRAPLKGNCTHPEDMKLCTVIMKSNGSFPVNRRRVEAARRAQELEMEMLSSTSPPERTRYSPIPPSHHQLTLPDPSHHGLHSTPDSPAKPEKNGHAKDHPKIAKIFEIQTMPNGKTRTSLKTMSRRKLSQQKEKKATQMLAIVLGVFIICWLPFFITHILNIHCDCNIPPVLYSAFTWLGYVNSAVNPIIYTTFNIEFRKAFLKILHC
# Assay: HTS Assay for Allosteric Antagonists of the Human D2 Dopamine Receptor: Primary Screen for Antagonists; also: 0% is about no effect
# Conditions: HEK293 TREx D2 cells, calcium flux, dopamine EC80; at 10 µM; stronger effect = higher value
# Method in brief: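 HEK293 T-REx D2 cells, tet-induced, calcium dye no-wash. Cpd pintool add, 180 s kinetic, then EC80 DA, 180 s kinetic. Ca flux read.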
row,SMILES,inhibition
1,Cc1ccn2c(=O)cc(COc3ccc(NC(=O)C(C)(C)C)cc3)nc2c1,7.61%
2,COC(=O)c1c(NC(=O)C(=O)NCC2CCCO2)sc2c1CC(C)(C)OC2 (stereo not drawn),active: 36.4%
3,CC(=O)N1c2ccc(S(=O)(=O)N3CCCC3C(=O)Nc3ccc(C)cc3)cc2CC1C (stereo not drawn),active: 36.7%
4,COC(=O)c1ccccc1NC(=O)CSc1n[nH]c(C)n1,0.303%
5,CCS(=O)(=O)N1CCc2cc(C(=O)NC(C)c3ccccc3)ccc21 (stereo not drawn),13.6%
6,CC(C)Oc1ccc(CNC(=O)CN2C(=O)c3cccnc3Oc3ccc(Cl)cc32)cc1,-1.69%
7,O=c1c2sc3ccccc3c2n(Cc2cccc(C(F)(F)F)c2)c(=O)n1-c1ccccc1,-18.4%
8,COc1ccc(-n2c(SC)nc3sc4c(c3c2=O)CCN(C(C)=O)C4)cc1,15.3%
9,COc1ccc(CNC(=O)C2CCN(C(=O)c3cnn(-c4ccccc4)c3-n3cccc3)CC2)cc1,3.22%
10,Cc1ccc(NC(=O)CSc2nnc(-c3cc4occc4n3C)n2-c2ccccc2C)c(C)c1,-3.09%
11,COc1ccc(N2CCN(CCCNC(=O)c3nnc(Cc4ccccc4Cl)o3)CC2)cc1,6.34%
12,CCC(=O)c1ccccc1OCCCN1CCC(Cc2ccccc2)CC1,active: 97.5%
13,CCS(=O)(=O)N1CC(=O)N(c2cc(C)cc(C)c2)C(C)(C(=O)NC2CCCCC2)C1 (stereo not drawn),-7.15%
14,Cc1cc(C)n2c(Nc3ccc4c(c3)OCCO4)c(-c3ccccc3)nc2n1,4.71%
15,COc1ccc(/C=C/C(=O)Nc2cc(-c3nc4ccccc4o3)ccc2OC)cc1,-0.893%
16,CC(=O)c1ccc(NC(=O)CSc2nnc(-c3ccncc3)n2-c2ccccc2)cc1,-0.694%
17,CCOc1cc(/C=N\NC(=O)OC(C)(C)C)ccc1OC(=O)c1ccco1,active: 31.3%
18,Cc1ccc(S(=O)(=O)c2[nH]c(-c3ccccc3)nc2SC(C)C(=O)O)cc1 (stereo not drawn),-4.81%
19,O=C(c1ccccc1)N1CCC(c2nc3ccccc3o2)CC1,1.06%
20,CN1C(=O)Cc2cc(S(=O)(=O)CCC(=O)Nc3ccc(Cl)cc3)ccc21,15.7%
21,COc1ccc(CCNC(=O)c2cnn(-c3cccc(C)c3)c2C2CCNCC2)cc1OC,3.87%
22,CC(=O)c1ccc(NC(=O)c2cc3c([nH]c2=O)CC(c2ccccc2)CC3=O)cc1 (stereo not drawn),18%
23,COc1ccc(OC)c(CNS(=O)(=O)c2cc(-c3onc(C)c3C)ccc2C)c1,4.77%
24,Cc1cc(F)ccc1NC(=O)CCS(=O)(=O)c1cc2c3c(c1)CCN3C(=O)CC2,1.13%
25,CCCCc1nn2c(=O)cc(COC(=O)c3cccc(NC(=O)c4cccs4)c3)nc2s1,13.1%

row,SMILES,inhibition
1,CC(=O)Nc1ccc(NC(=O)c2csnn2)cc1,10%
2,CCOC(=O)C1CCN(Cc2ccc(OCc3ccccc3)cc2)CC1,active: 59.2%
3,COCCN1C(=O)N(c2cccc(OC)c2)C(=O)C1CC(=O)Nc1ccccc1 (stereo not drawn),16.5%
4,COc1cc2ccccc2cc1C(=O)N1CCN(c2nc3c(F)cccc3s2)CC1,-4.55%
5,O=C(NCc1ccc(Cl)cc1)C(=O)NCC(c1ccc2c(c1)OCO2)N1CCOCC1 (stereo not drawn),-2.8%
6,O=C(NCCO)C(=O)NCC(c1ccc2c(c1)OCO2)N1CCOCC1 (stereo not drawn),-5.6%
7,Cc1ccc(-c2nc(CS(=O)(=O)CC(=O)NC(C)CCc3ccccc3)c(C)o2)cc1 (stereo not drawn),4.91%
8,COc1ccc(/C=C/c2nc(C#N)c(N3CCC(C(N)=O)CC3)o2)cc1OC,-13.4%
9,Cc1c(NC(=O)Nc2cccc(C(F)(F)F)c2)sc2nc3n(c(=O)c12)CCC(C)CC3 (stereo not drawn),5.74%
10,COc1ccc(C(CC(=O)Nc2ccccn2)N2Cc3ccccc3C2=O)cc1OC (stereo not drawn),6.94%
11,O=C(CCS(=O)(=O)c1ccccc1)N(Cc1cccnc1)c1nc2c(F)cccc2s1,-16.2%
12,CCc1ccccc1NC(=O)Cn1nnc(C(=O)NCc2ccco2)c1N,4.85%
13,CC1CC(C)(C)NC(=S)N1CCCC(=O)NCc1ccccc1 (stereo not drawn),active: 36.7%
14,CCOC(=O)c1nnc2c(-c3ccc(Cl)cc3)c(C)nn2c1N,19.7%
15,CC(NC(=O)CCc1cn(Cc2ccccc2Cl)c2ccccc12)c1ccccc1 (stereo not drawn),-10.6%
16,O=C(NCCc1ccccc1)c1ccc(CSc2nc3cccnc3n2Cc2ccccc2)cc1,-6.62%
17,CC(C)Cc1nn2cc(-c3cccc(Br)c3)nc2s1,0.806%
18,CCOc1ccc(N2CC(c3nc4ccccc4n3CCOc3ccc(OC)cc3)CC2=O)cc1 (stereo not drawn),-1.85%
19,CCOc1ccc2nc(N3CCCC(C(=O)NCCc4ccc(OC)cc4OC)C3)sc2c1 (stereo not drawn),-10%
20,O=C(Nc1ccc(F)c(Cl)c1)c1cc(S(=O)(=O)NCc2ccc3c(c2)OCO3)ccc1F,5.86%
21,Cc1cc2nc(-c3ccc(NC(=O)c4ccc(OCC(C)C)cc4)cc3)oc2cc1C,-13.4%
22,CCOCCCNC(=O)c1ccc(-c2nc(CS(=O)(=O)c3ccccc3)c(C)o2)cc1,2.51%
23,CNC(=O)C1CCCN(c2nnc(C)c3c(C)n(-c4ccccc4)nc23)C1 (stereo not drawn),-8.98%
24,COc1ccc(-c2nc3sc(CCNC(=O)C(C)(C)C)c(C)n3n2)cc1,4.03%
25,CCOC(=O)C1CCN(c2cc3c(cc2NC(=O)c2ccccc2Cl)n(C)c(=O)n3C)CC1,16.3%

row,SMILES,inhibition
1,O=C(O)CCc1ccc(-c2ccc(Br)cc2)n1-c1ccccc1O,16%
2,Cc1ccc(C(=O)c2sc(Nc3ccc(F)cc3)c(C#N)c2N)cc1,-6.46%
3,Cc1cccc(CCn2c(=O)c3ccccc3n(Cc3ccccc3C)c2=O)c1,-2.17%
4,COc1ccc2c(c1)c1c(c(=O)n(Cc3ccccc3)c(=O)n1CC(=O)Nc1ccccc1F)n2C,3.67%
5,Cc1ccc(OC(=O)CSc2nnc(-c3ccc4c(c3)OCO4)o2)c(C)c1,12.2%
6,CCOC(=O)c1cnc(NCc2ccc(OC)cc2OC)c2ccccc12,-0.0638%
7,CCOc1ccccc1NC(=O)N1CC(C)Oc2ccc(Cl)cc21 (stereo not drawn),-13.9%
8,Cc1cccn2c(=O)cc(COc3ccc(NC(=O)COc4ccc(F)cc4)cc3)nc12,-9.23%
9,O=C1CC(c2ccccc2)Cc2[nH]c(=O)c(-c3nc(-c4ccc(Cl)c(Cl)c4)cs3)cc21 (stereo not drawn),-14.2%
10,Cc1cc(C)c2oc(C(=O)NCCc3ccc(S(N)(=O)=O)cc3)cc(=O)c2c1,6.5%
11,COc1ccc(Cl)cc1NC(=O)C(=O)NCc1ccc(Cl)cc1,-7.55%
12,COCCNS(=O)(=O)c1cc(-c2nn3c(C)nnc3c3ccccc23)ccc1C,4.06%
13,Cc1ccc(NC(=O)N2CCN(C(=O)c3nsc4ccccc34)CC2)cc1C,6.76%
14,COc1ccccc1NC(=O)C(=O)c1cc(C)n(-c2cc(C)cc(C)c2)c1C,11%
15,CCOc1cccc(-c2nc3ccccc3c(=O)o2)c1,6.5%
16,COc1cccc(C(=O)Nc2nc(-c3nnn(-c4cc(C)ccc4C)c3C)ns2)c1,-0.348%
17,O=C1CN(C(=O)c2cccc(Br)c2)C(c2ccccc2)c2cc(Cl)ccc2N1 (stereo not drawn),-18.6%
18,N#Cc1c(-n2ncnc2-c2cccc(Cl)c2)sc2c1CCCCC2,10.9%
19,COC(=O)c1c(-c2ccc(Cl)cc2)noc1N1CCN(c2ccccc2F)CC1,6.18%
20,CCOC(=O)C1=C(CN(CC)Cc2ccccc2)NC(=O)NC1c1ccc(OC)cc1 (stereo not drawn),-11.5%
21,COc1ccc2c(c1)c1c(c(=O)n(-c3ccc(F)c(Cl)c3)c(=O)n1Cc1ccccc1F)n2C,-12.2%
22,CCCCNC(=O)c1ccc2c(c1)NC(=O)C(C(C)C)N2 (stereo not drawn),-3.86%
23,COc1ccc(C(=O)Nc2ccc(-c3nc4ncccc4o3)cc2)cc1,26.3%
24,CC(C)(C)OC(=O)N1CCC(c2c(C(=O)NCc3ccccn3)cnn2-c2ccccc2)CC1,-0.953%
25,COc1ccccc1Nc1nn2c(=O)c3ccc(C(=O)NCc4cccs4)cc3nc2s1,7.33%

row,SMILES,inhibition
1,COC(=O)c1cc(S(=O)(=O)NCC2CCN(Cc3cc(C)ccc3C)CC2)c[nH]1,5.35%
2,COc1ccc(-c2cn3c(n2)sc2cc(C(=O)NCc4ccccc4OC)ccc23)cc1,17.2%
3,Cc1ccc2c(=O)c(C(=O)c3ccc(F)cc3)cn(CC(=O)NCc3ccccc3)c2n1,-10.8%
4,COc1cccc(Cn2c(CNC(=O)C(C)C)nc3cccnc32)c1,-9.99%
5,COc1ccc(OC)c(S(=O)(=O)NCCc2sc(-c3ccc(C)cc3)nc2C)c1,3.1%
6,O=C(Nc1cc(Cl)cc(Cl)c1)c1ccc(F)c(S(=O)(=O)NC2CCCC2)c1,-5.83%
7,Cc1cccc(CN2C(=O)c3ccccc3Sc3ccc(C(=O)N4CCCC4)cc32)c1,-23.1%
8,CCOC(=O)c1c(NC(=O)COc2ccccc2F)sc2c1CCCC2,-8.77%
9,COCCN1C(=O)c2[nH]nc(-c3ccccc3O)c2C1c1ccc(OCc2ccccc2)c(OC)c1 (stereo not drawn),-24.3%
10,CCc1ccc(N(CC)C(=O)c2ccc3c(=O)n4c(nc3c2)CCCCC4)cc1,-0.668%
11,Cc1ccc(S(=O)(=O)c2cnc(SCC(=O)Nc3cc(C)cc(C)c3)nc2N)cc1,27%
12,Cc1cccc(OCc2ccc(-c3nc(C#N)c(NCCN(C)C)o3)o2)c1,8.56%
13,COc1ccc2c(c1)c1c(c(=O)n(-c3ccccc3C)c(=O)n1CC(=O)NCc1ccc(C)cc1)n2C,12.7%
14,Cc1cc(Nc2ccc(C)c(C)c2)n2cnnc2n1,-4.09%
15,CCOC(=O)c1c(C)oc2nc(C)nc(NCc3ccccc3Cl)c12,-5%
16,COC(=O)c1ccccc1NC(=O)Cn1cc(S(=O)(=O)Cc2ccccc2F)c2ccccc21,-1.5%
17,Cc1ccc2cccc(NC(=O)COc3ccccc3[N+](=O)[O-])c2n1,1.48%
18,CCCCc1ccc(-n2nc3cc(C)c(NC(=O)Cc4ccccc4)cc3n2)cc1,-3.6%
19,CCN(CC)c1ccc(NC(=O)CSc2nnc(C)c(=O)[nH]2)cc1,7.24%
20,CCCN(CCC)C(=O)CSc1nnc2cc(C)c3cc(C)cc(C)c3n12,-0.889%
21,COc1cccc(OCCCCn2c(-c3ccc(Cl)cc3)nc3ccccc3c2=O)c1,-8.35%
22,Cc1ccc(-c2onc(C)c2C)cc1S(=O)(=O)NCc1ccco1,-13.9%
23,O=S(=O)(NCCSc1nnnn1-c1ccccc1)c1ccc(F)cc1,1.42%
